B1: NB147-61 VHH-hFc (Fc fusion)
chain: EVQLVESGGGMVQPGGSLRLSCAASGFTLDYYAIGWFRQAPGKEREGVSCISSSGGRTNYADSVKGRFTISRDDARNTVYLQMNTLKPEDTAVYYCAAVILDNSWHCGYSYDMDYWGKGTLVTVSS[human IgG1 Fc with changes not written out]
notes: the junction is not described
B2: Tab094 (FRP5 ScFv-human IgG1 Fc) (Fc fusion)
chain: QVQLQQSGPELKKPGETVKISCKASGYPFTNYGMNWVKQAPGQGLKWMGWINTSTGESTFADDFKGRFDFSLETSANTAYLQINNLKSEDMATYFCARWEVYHGYVPYWGQGTTVTVSSGGGGSGGGGSGGGGSDIQLTQSHKFLSTSVGDRVSITCKASQDVYNAVAWYQQKPGQSPKLLIYSASSRYTGVPSRFTGSGSGPDFTFTISSVQAEDLAVYFCQQHFRTPFTFGSGTKLEIK[human IgG1 Fc with changes not written out]
notes: scFv-Fc control antibody; also called Tab94; FRP5 ScFv-hFc
B3: NB147-36 VHH-hFc (Fc fusion)
chain: QLQLVESGGGLVQPGGSLRLSCAASGFTLDYHAIGWFRQAPGKEREGVSCISSSGGRINYADSVKGRFTISRDMTKNTVYLELNSLKPEDTAIYYCAAEIFDSSWYCPLSRNNMNYWGKGTLVAVSS[human IgG1 Fc with changes not written out]
notes: the junction is not described
B4: NB147-66 VHH-hFc (Fc fusion)
chain: QLQLVESGGGLVHTGGSLRLSCAASGSTLDYHAIGWFRQAPGKEREGVSCITSSGGRTNYADSVKGRFTVSRDDAKNTVYLQMNSLKPEDTAVYYCAAVIYDSAWICNLLAGYEYRYWGQGTQVTVSS[human IgG1 Fc with changes not written out]
B5: NB147-66 VHH-hFc (Fc fusion)
chain: QLQLVESGGGLVHTGGSLRLSCAASGSTLDYHAIGWFRQAPGKEREGVSCITSSGGRTNYADSVKGRFTVSRDDAKNTVYLQMNSLKPEDTAVYYCAAVIYDSAWICNLLAGYEYRYWGQGTQVTVSS[human IgG1 Fc with changes not written out]
notes: the junction is not described
B6: NB147-32 VHH-hFc (Fc fusion)
chain: QLQLVESGGGLVQSGGSLRLSCAASGFSLDYHAIGWFRQAPGKEREGVSCISSSGGRTNYADSVKGRFTISRDNAKNTVYLQMNSLKPEDAAVYSCAAVIYNSAWICNLLTGYEYEYWGQGTQVTVSS[human IgG1 Fc with changes not written out]
notes: the junction is not described

Key:
monkey HER2-His protein [1] = molecular target: T1, monkey HER2-His protein (monkey); assay: ELISA, coated monkey HER2-His
T1 construct: Bought protein; also called monkey HER2 protein

[2] = molecular target: T2, monkey HER2 on HEK293T-monkey-HER2 cells (monkey); assay: FACS on HEK293T-monkey-HER2 cells
T2 construct: whole, on cells

monkey HER2-His protein [3] = molecular target: T1, monkey HER2-His protein; assay: SPR, antibody captured on Protein A chip, monkey HER2-His analyte, 1:1 model
murine HER2-His protein [4] = molecular target: T3, murine HER2-His protein (murine, UniProt P70424 23-653); assay: SPR, antibody captured on Protein A chip, murine HER2-His analyte, 1:1 model
T3 construct: Bought protein; also called murine HER2 protein; not shown: His tag

murine HER2-His protein [5] = molecular target: T3, murine HER2-His protein; assay: ELISA, coated murine HER2-His
[6] = molecular target: T4, human HER2-His protein (Acro, Cat. No. HE2-H5225) (human, UniProt P04626 partial chain); assay: ELISA, 1 nM
T4 construct: also called human HER2 protein; recombinant human HER2-His

[7] = molecular target: T4, human HER2-His protein (Acro, Cat. No. …); assay: ELISA, 100 nM
[8] = molecular target: T4, human HER2-His protein (Acro, Cat. No. …); assay: ELISA, 0.001 nM
[9] = molecular target: T5, human HER2 protein on cells (SK-BR-3 endogenous; CHO-K1-human HER2 recombinant) (human, UniProt P04626); assay: FACS on SK-BR-3 cells
T5 construct: also called human HER2-CHO-K1 cells

[10] = molecular target: T4, human HER2-His protein (Acro, Cat. No. …); assay: ELISA, 10 nM
[11] = molecular target: T4, human HER2-His protein (Acro, Cat. No. …); assay: ELISA, 0.0001 nM
[12] = molecular target: T5, human HER2 protein on cells (SK-BR-3 …); assay: FACS on CHO-K1-human HER2 cells
[13] = molecular target: T4, human HER2-His protein (Acro, Cat. No. …); assay: ELISA, 0.1 nM
[14] = molecular target: T4, human HER2-His protein (Acro, Cat. No. …); assay: ELISA, 0.01 nM
[15] = molecular target: T6, recombinant human HER2-His protein (human, UniProt P04626 partial chain, limits assumed); assay: SPR, antibody captured on Protein A chip, human HER2-His analyte, 1:1 model
T6 construct: also called human HER2 protein; not shown: His tag

| Binder | OD450 nm at 0.0001 nM antibody (monkey HER2-His protein [1]) [OD450 nm] | OD450 nm at 0.001 nM antibody (monkey HER2-His protein [1]) [OD450 nm] | OD450 nm at 0.01 nM antibody (monkey HER2-His protein [1]) [OD450 nm] | OD450 nm at 0.1 nM antibody (monkey HER2-His protein [1]) [OD450 nm] | OD450 nm at 1 nM antibody (monkey HER2-His protein [1]) [OD450 nm] | OD450 nm at 10 nM antibody (monkey HER2-His protein [1]) [OD450 nm] | OD450 nm at 100 nM antibody (monkey HER2-His protein [1]) [OD450 nm] | EC50 [2] [nM] | Max MFI [2] [MFI] | Kd (monkey HER2-His protein [3]) [nM] | koff (monkey HER2-His protein [3]) [s⁻¹] | kon (monkey HER2-His protein [3]) [M⁻¹ s⁻¹] | Kd (murine HER2-His protein [4]) [nM] | koff (murine HER2-His protein [4]) [s⁻¹] | kon (murine HER2-His protein [4]) [M⁻¹ s⁻¹] | OD450 nm at 0.0001 nM antibody (murine HER2-His protein [5]) [OD450 nm] | OD450 nm at 0.001 nM antibody (murine HER2-His protein [5]) [OD450 nm] | OD450 nm at 0.01 nM antibody (murine HER2-His protein [5]) [OD450 nm] | OD450 nm at 0.1 nM antibody (murine HER2-His protein [5]) [OD450 nm] | OD450 nm at 1 nM antibody (murine HER2-His protein [5]) [OD450 nm] | further results |
| --- | --- | --- | --- | --- | --- | --- | --- | --- | --- | --- | --- | --- | --- | --- | --- | --- | --- | --- | --- | --- | --- |
| B1 | 0.05 | 0.06 | 0.16 | 0.97 | 2.49 | 2.77 | 3.12 | 3.79 | 18400 | 91.1 | 0.0173 | 190000 | 685 | 0.0569 | 83000 | 0.05 | 0.06 | 0.14 | 0.91 | 2.47 | OD450 nm at 10 nM antibody (murine HER2-His protein [5]): 2.78 OD450 nm; OD450 nm at 100 nM antibody (murine HER2-His protein [5]): 3.13 OD450 nm |
| B2 | – | – | – | – | – | – | – | – | – | – | – | – | – | – | – | – | – | – | – | – | OD450 [6]: 2.94; OD450 [7]: 3.43; OD450 [8]: 0.06; EC50 [9]: 4.77 nM; Max MFI [9]: 8780; OD450 [10]: 3.34; OD450 [11]: 0.05; EC50 [12]: 4.83 nM; Max MFI [12]: 1660; OD450 [13]: 0.82; OD450 [14]: 0.12 |
| B3 | 0.05 | 0.06 | 0.19 | 1.16 | 2.66 | 2.91 | 2.93 | 3.48 | 16100 | 44.2 | 0.0145 | 327000 | 135 | 0.0125 | 92600 | 0.05 | 0.07 | 0.19 | 1.17 | 2.72 | Kd [15]: 56.1 nM; koff [15]: 0.00639 s⁻¹; kon [15]: 114000 M⁻¹ s⁻¹; OD450 nm at 10 nM antibody (murine HER2-His protein [5]): 2.87 OD450 nm; OD450 nm at 100 nM antibody (murine HER2-His protein [5]): 2.89 OD450 nm |
| B4 | – | – | – | – | – | – | – | – | – | – | – | – | – | – | – | – | – | – | – | – | OD450 [6]: 2.28; OD450 [7]: 2.94; OD450 [8]: 0.06; EC50 [9]: 6.71 nM; Max MFI [9]: 5890; OD450 [10]: 2.56; OD450 [11]: 0.05; EC50 [12]: 1.97 nM; Max MFI [12]: 1300; OD450 [13]: 0.85; OD450 [14]: 0.15 |
| B5 | 0.05 | 0.07 | 0.16 | 1.06 | 2.53 | 2.74 | 3.13 | 4.02 | 19200 | 59.3 | 0.00439 | 74000 | 467 | 0.00744 | 15900 | 0.05 | 0.06 | 0.18 | 1.08 | 2.52 | Kd [15]: 93 nM; koff [15]: 0.00204 s⁻¹; kon [15]: 21900 M⁻¹ s⁻¹; OD450 nm at 10 nM antibody (murine HER2-His protein [5]): 2.8 OD450 nm; OD450 nm at 100 nM antibody (murine HER2-His protein [5]): 3.13 OD450 nm |
| B6 | 0.05 | 0.06 | 0.19 | 1.19 | 2.7 | 2.83 | 2.83 | 2.8 | 18300 | 68.3 | 0.00279 | 40900 | 374 | 0.00677 | 18100 | 0.05 | 0.06 | 0.2 | 1.2 | 2.75 | OD450 nm at 10 nM antibody (murine HER2-His protein [5]): 2.93 OD450 nm; OD450 nm at 100 nM antibody (murine HER2-His protein [5]): 2.92 OD450 nm |

From patent US20240076403A1 (SIMCERE ZAIMING PHARMACEUTICAL, published 2024)
